# Results from the supplement of paper PMC8728848.
# The other results are listed elsewhere or left out.
# B1: GALT1 115 D492A (Arabidopsis thaliana), Q8L7F9 (protein)
# chain: DPMRGSHHHHHHGMASMTGGQQMGRDLYDDDDKSRLQKPYITAAASVVVTPNTTLPMEWLRITLPDFMKEARNTQEAISGDDIAVVSGLFVEQNVSKEEREPLLTWNRLESLVDNAQSLVNGVDAIKEAGIVWESLVSAVEAKKLVDVNENQTRKGKEELCPQFLSKMNATEADGSSLKLQIPCGLTQGSSITVIGIPDGLVGSFRIDLTGQPLPGEPDPPIIVHYNVRLLGDKSTEDPVIVQNSWTASQDWGAEERCPKFDPDMNKKVDDLDECNKMVGGEINRTSSTSLQSNTSRGVPVAREASKHEKYFPFKQGFLSVATLRVGTEGMQMTVDGKHITSFAFRDTLEPWLVSEIRITGDFRLISILASGLPTSEESEHVVDLEALKSPTLSPLRPLDLVIGVFSTANNFKRRMAVRRTWMQYDDVRSGRVAVRFFVGLHKSPLVNLELWNEARTYGDVQLMPFVDYYSLISWKTLAICIFGTEVDSAKFIMKTDDAAFVRVDEVLLSLSMTNNTRGLIYGLINSDSQPIRNPDSKWYISYEEWPEEKYPPWAHGPGYIVSRDIAESVGKLFKEGNLKMFKLEDVAMGIWIAELTKHGLEPHYENDGRIISDGCKDGYVVAHYQSPAEMTCLWRKYQETKRSLCCREW
# What was measured:
# Experiment in all cases: glycan array binding signal (z-score within array); higher = stronger binding
# Settings in all cases: glycan notation: IUPAC condensed, linker removed
# [1] = biological target: Gal(b1-4)GlcNAc(b1-3)[GlcNAc(b1-6)]Gal(b1-4)GlcNAc
# Summary of the method: (§1)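 Arrays were curated from the Consortium for Functional Glycomics database, 3228 in total, and kept only where the protein sequence was available. Binding is expressed as a within-array Z-score. This score was averaged across arrays of the same protein sequence at different concentrations or buffers and across linkers, and negative values can be read as non-binding.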
# [2] = biological target: Gal(b1-4)GlcNAc(b1-6)Gal(b1-4)GlcNAc
# Summary of the method: as §1
# [3] = biological target: Gal(b1-4)GlcNAc(b1-6)Gal(b1-4)GlcNAc(b1-6)GalNAc
# Summary of the method: as §1
# [4] = biological target: Gal(b1-4)GlcNAc(b1-6)GalNAc
# Summary of the method: as §1
# [5] = biological target: Gal(b1-4)GlcNAc(b1-6)[Gal(b1-3)]GalNAc
# Summary of the method: as §1
# Gal3S(b1-3)GalNAc = biological target: Gal3S(b1-3)GalNAc
# Summary of the method: as §1
# Gal3S(b1-3)GlcNAc = biological target: Gal3S(b1-3)GlcNAc
# Summary of the method: as §1
# [6] = biological target: Gal3S(b1-3)[Fuc(a1-4)]GlcNAc
# Summary of the method: as §1
# Gal3S(b1-4)Glc = biological target: Gal3S(b1-4)Glc
# Summary of the method: as §1
# Gal3S(b1-4)Glc6S = biological target: Gal3S(b1-4)Glc6S
# Summary of the method: as §1
# Gal3S(b1-4)GlcNAc = biological target: Gal3S(b1-4)GlcNAc
# Summary of the method: as §1
# Gal3S(b1-4)GlcNAc6S = biological target: Gal3S(b1-4)GlcNAc6S
# Summary of the method: as §1
# [7] = biological target: Gal3S(b1-4)[Fuc(a1-3)]Glc
# Summary of the method: as §1
# Gal3S4S(b1-4)GlcNAc = biological target: Gal3S4S(b1-4)GlcNAc
# Summary of the method: as §1
# Gal3S6S(b1-4)GlcNAc = biological target: Gal3S6S(b1-4)GlcNAc
# Summary of the method: as §1
# Gal3S6S(b1-4)GlcNAc6S = biological target: Gal3S6S(b1-4)GlcNAc6S
# Summary of the method: as §1
# Gal4S(b1-4)GlcNAc = biological target: Gal4S(b1-4)GlcNAc
# Summary of the method: as §1
# Gal4S6S(b1-4)GlcNAc = biological target: Gal4S6S(b1-4)GlcNAc
# Summary of the method: as §1
# Gal6S(b1-4)Glc = biological target: Gal6S(b1-4)Glc
# Summary of the method: as §1
# Gal6S(b1-4)Glc6S = biological target: Gal6S(b1-4)Glc6S
# Summary of the method: as §1
# Gal6S(b1-4)GlcNAc = biological target: Gal6S(b1-4)GlcNAc
# Summary of the method: as §1
# Gal6S(b1-4)GlcNAc6S = biological target: Gal6S(b1-4)GlcNAc6S
# Summary of the method: as §1
# GalNAc(a1-3)Gal = biological target: GalNAc(a1-3)Gal
# Summary of the method: as §1
# GalNAc(a1-3)GalNAc = biological target: GalNAc(a1-3)GalNAc
# Summary of the method: as §1
# GalNAc(b1-3)Gal = biological target: GalNAc(b1-3)Gal
# Summary of the method: as §1
# [8] = biological target: GalNAc(b1-3)Gal(a1-4)Gal(b1-4)GlcNAc
# Summary of the method: as §1
# [9] = biological target: GalNAc(b1-3)Gal(a1-4)Gal(b1-4)GlcNAc(b1-3)Gal(b1-4)Glc
# Summary of the method: as §1
# GalNAc(b1-3)GalNAc = biological target: GalNAc(b1-3)GalNAc
# Summary of the method: as §1
# GalNAc(b1-4)GlcNAc = biological target: GalNAc(b1-4)GlcNAc
# Summary of the method: as §1
# [10] = biological target: GalNAc(b1-4)GlcNAc(b1-2)Man(a1-3)[GalNAc(b1-4)GlcNAc(b1-2)Man(a1-6)]Man(b1-4)GlcNAc(b1-4)GlcNAc
# Summary of the method: as §1
# Glc(a1-4)Glc = biological target: Glc(a1-4)Glc
# Summary of the method: as §1
# Glc(a1-6)Glc(a1-6)Glc = biological target: Glc(a1-6)Glc(a1-6)Glc
# Summary of the method: as §1
# Glc(b1-4)Glc = biological target: Glc(b1-4)Glc
# Summary of the method: as §1
# Glc(b1-6)Glc = biological target: Glc(b1-6)Glc
# Summary of the method: as §1
# GlcA(b1-3)Gal = biological target: GlcA(b1-3)Gal
# Summary of the method: as §1
# GlcA(b1-3)GlcNAc = biological target: GlcA(b1-3)GlcNAc
# Summary of the method: as §1
# GlcA(b1-6)Gal = biological target: GlcA(b1-6)Gal
# Summary of the method: as §1
# [11] = biological target: GlcNAc(a1-3)Gal(b1-4)GlcNAc
# Summary of the method: as §1
# [12] = biological target: GlcNAc(a1-4)Gal(b1-3)GlcNAc
# Summary of the method: as §1
# [13] = biological target: GlcNAc(a1-4)Gal(b1-4)GalNAc
# Summary of the method: as §1
# [14] = biological target: GlcNAc(a1-4)Gal(b1-4)GlcNAc
# Summary of the method: as §1
# [15] = biological target: GlcNAc(a1-4)Gal(b1-4)GlcNAc(b1-3)Gal(b1-4)Glc
# Summary of the method: as §1
# [16] = biological target: GlcNAc(a1-4)Gal(b1-4)GlcNAc(b1-3)Gal(b1-4)GlcNAc
# Summary of the method: as §1
# [17] = biological target: GlcNAc(a1-4)Gal(b1-4)GlcNAc(b1-3)Gal(b1-4)GlcNAc(b1-3)Gal(b1-4)GlcNAc
# Summary of the method: as §1
# [18] = biological target: GlcNAc(a1-4)Gal(b1-4)GlcNAc(b1-3)Gal(b1-4)[Fuc(a1-3)]GlcNAc(b1-3)Gal(b1-4)[Fuc(a1-3)]GlcNAc
# Summary of the method: as §1
# [19] = biological target: GlcNAc(a1-6)Gal(b1-4)GlcNAc
# Summary of the method: as §1
# [20] = biological target: GlcNAc(b1-2)Gal(b1-3)GalNAc
# Summary of the method: as §1
# [21] = biological target: GlcNAc(b1-2)Man(a1-3)[GlcNAc(b1-2)Man(a1-6)]Man(b1-4)GlcNAc(b1-4)GlcNAc
# Summary of the method: as §1
# [22] = biological target: GlcNAc(b1-2)Man(a1-3)[GlcNAc(b1-2)Man(a1-6)]Man(b1-4)GlcNAc(b1-4)[Fuc(a1-6)]GlcNAc
# Summary of the method: as §1
# GlcNAc(b1-3)Gal = biological target: GlcNAc(b1-3)Gal
# Summary of the method: as §1
# [23] = biological target: GlcNAc(b1-3)Gal(b1-3)GalNAc
# Summary of the method: as §1
# GlcNAc(b1-3)Gal(b1-4)Glc = biological target: GlcNAc(b1-3)Gal(b1-4)Glc
# Summary of the method: as §1
# [24] = biological target: GlcNAc(b1-3)Gal(b1-4)GlcNAc
# Summary of the method: as §1
# [25] = biological target: GlcNAc(b1-3)Gal(b1-4)GlcNAc(b1-3)Gal(b1-4)GlcNAc
# Summary of the method: as §1
# GlcNAc(b1-3)GalNAc = biological target: GlcNAc(b1-3)GalNAc
# Summary of the method: as §1
# GlcNAc(b1-3)Man = biological target: GlcNAc(b1-3)Man
# Summary of the method: as §1
# [26] = biological target: GlcNAc(b1-3)[GlcNAc(b1-4)][GlcNAc(b1-6)]GlcNAc
# Summary of the method: as §1
# [27] = biological target: GlcNAc(b1-3)[GlcNAc(b1-6)]Gal(b1-4)GlcNAc
# Summary of the method: as §1
# [28] = biological target: GlcNAc(b1-3)[GlcNAc(b1-6)]GalNAc
# Summary of the method: as §1
# [29] = biological target: GlcNAc(b1-4)Gal(b1-4)GlcNAc
# Summary of the method: as §1
binder,measurement,setting,value
B1,glycan array binding signal (z-score),[1],-0.25
same,glycan array binding signal (z-score),[2],-0.226
same,glycan array binding signal (z-score),[3],0.674
same,glycan array binding signal (z-score),[4],-0.406
same,glycan array binding signal (z-score),[5],-0.027
same,glycan array binding signal (z-score),Gal3S(b1-3)GalNAc,0.318
same,glycan array binding signal (z-score),Gal3S(b1-3)GlcNAc,-0.028
same,glycan array binding signal (z-score),[6],-0.223
same,glycan array binding signal (z-score),Gal3S(b1-4)Glc,-0.314
same,glycan array binding signal (z-score),Gal3S(b1-4)Glc6S,-0.095
same,glycan array binding signal (z-score),Gal3S(b1-4)GlcNAc,-0.298
same,glycan array binding signal (z-score),Gal3S(b1-4)GlcNAc6S,-0.147
same,glycan array binding signal (z-score),[7],-0.291
same,glycan array binding signal (z-score),Gal3S4S(b1-4)GlcNAc,0.069
same,glycan array binding signal (z-score),Gal3S6S(b1-4)GlcNAc,-0.392
same,glycan array binding signal (z-score),Gal3S6S(b1-4)GlcNAc6S,-0.432
same,glycan array binding signal (z-score),Gal4S(b1-4)GlcNAc,0.055
same,glycan array binding signal (z-score),Gal4S6S(b1-4)GlcNAc,-0.157
same,glycan array binding signal (z-score),Gal6S(b1-4)Glc,-0.222
same,glycan array binding signal (z-score),Gal6S(b1-4)Glc6S,0.389
same,glycan array binding signal (z-score),Gal6S(b1-4)GlcNAc,0.652
same,glycan array binding signal (z-score),Gal6S(b1-4)GlcNAc6S,0.326
same,glycan array binding signal (z-score),GalNAc(a1-3)Gal,-0.316
same,glycan array binding signal (z-score),GalNAc(a1-3)GalNAc,-0.368
same,glycan array binding signal (z-score),GalNAc(b1-3)Gal,-0.147
same,glycan array binding signal (z-score),[8],-0.135
same,glycan array binding signal (z-score),[9],0.091
same,glycan array binding signal (z-score),GalNAc(b1-3)GalNAc,-0.181
same,glycan array binding signal (z-score),GalNAc(b1-4)GlcNAc,-0.261
same,glycan array binding signal (z-score),[10],-0.095
same,glycan array binding signal (z-score),Glc(a1-4)Glc,1.21
same,glycan array binding signal (z-score),Glc(a1-6)Glc(a1-6)Glc,-0.335
same,glycan array binding signal (z-score),Glc(b1-4)Glc,-0.085
same,glycan array binding signal (z-score),Glc(b1-6)Glc,-0.244
same,glycan array binding signal (z-score),GlcA(b1-3)Gal,-0.053
same,glycan array binding signal (z-score),GlcA(b1-3)GlcNAc,-0.206
same,glycan array binding signal (z-score),GlcA(b1-6)Gal,-0.271
same,glycan array binding signal (z-score),[11],0.007
same,glycan array binding signal (z-score),[12],0.356
same,glycan array binding signal (z-score),[13],0.654
same,glycan array binding signal (z-score),[14],-0.069
same,glycan array binding signal (z-score),[15],0.145
same,glycan array binding signal (z-score),[16],0.061
same,glycan array binding signal (z-score),[17],-0.503
same,glycan array binding signal (z-score),[18],2.05
same,glycan array binding signal (z-score),[19],-0.292
same,glycan array binding signal (z-score),[20],-0.037
same,glycan array binding signal (z-score),[21],-0.23
same,glycan array binding signal (z-score),[22],2.9
same,glycan array binding signal (z-score),GlcNAc(b1-3)Gal,-0.543
same,glycan array binding signal (z-score),[23],1.5
same,glycan array binding signal (z-score),GlcNAc(b1-3)Gal(b1-4)Glc,-0.095
same,glycan array binding signal (z-score),[24],-0.176
same,glycan array binding signal (z-score),[25],-0.165
same,glycan array binding signal (z-score),GlcNAc(b1-3)GalNAc,0.045
same,glycan array binding signal (z-score),GlcNAc(b1-3)Man,-0.193
same,glycan array binding signal (z-score),[26],-0.397
same,glycan array binding signal (z-score),[27],0.997
same,glycan array binding signal (z-score),[28],0.43
same,glycan array binding signal (z-score),[29],-0.482
